Laboratory results taken from patent US9714221B1 (priority 2016, dated 2017).

Tested on: MCF7 cells (breast tumor cells) WT
Assay: cells
Conditions: Homo sapiens, read-out: proliferation MCF7 (WT) IC50 (nM)

## CCOc1ccc(C2=C(c3ccc(O[C@H]4CCN(CCCF)C4)cc3)c3ccc(O)cc3CCC2)cc1Cl [Example 95, 6-(3-chloro-4-ethoxy-phenyl)-5-[4-[(3S)-1-(3-fluoropropyl)pyrrolidin-3-yl]oxyphenyl]-8,9-dihydro-7H-benzo[7]annulen-2-ol]
  IC50: 0.5 nM

## Cc1cncc(C2=C(c3ccc(O[C@H]4CCN(CCCF)C4)cc3)c3ccc(O)cc3CCC2)c1 [Example 96, 5-[4-[(3S)-1-(3-fluoropropyl)pyrrolidin-3-yl]oxyphenyl]-6-(5-methyl-3-pyridyl)-8,9-dihydro-7H-benzo[7]annulen-2-ol]
  IC50: 0.8 nM

## COc1ccc(C2=C(c3ccc(O[C@H]4CCN(CCCF)C4)cc3)c3ccc(O)cc3CCC2)c(C)n1 [Example 97, 5-[4-[(3S)-1-(3-fluoropropyl)pyrrolidin-3-yl]oxyphenyl]-6-(6-methoxy-2-methyl-3-pyridyl)-8,9-dihydro-7H-benzo[7]annulen-2-ol]
  IC50: 0.2 nM

## CC1(C)Cc2cc(C3=C(c4ccc(O[C@H]5CCN(CCCF)C5)cc4)c4ccc(O)cc4CCC3)ccc2O1 [Example 98, 6-(2,2-dimethyl-3H-benzofuran-5-yl)-5-[4-[(3S)-1-(3-fluoropropyl)pyrrolidin-3-yl]oxyphenyl]-8,9-dihydro-7H-benzo[7]annulen-2-ol]
  IC50: 0.4 nM

## COc1ncc(C2=C(c3ccc(O[C@H]4CCN(CCCF)C4)cc3)c3ccc(O)cc3CCC2)cc1Cl [Example 99, 6-(5-chloro-6-methoxy-3-pyridyl)-5-[4-[(3S)-1-(3-fluoropropyl)pyrrolidin-3-yl]oxyphenyl]-8,9-dihydro-7H-benzo[7]annulen-2-ol]
  IC50: 0.4 nM

## CCOc1cc(C)c(C2=C(c3ccc(O[C@H]4CCN(CCCF)C4)cc3)c3ccc(O)cc3CCC2)cc1C [Example 100, 6-(4-ethoxy-2,5-dimethyl-phenyl)-5-[4-[(3S)-1-(3-fluoropropyl)pyrrolidin-3-yl]oxyphenyl]-8,9-dihydro-7H-benzo[7]annulen-2-ol]
  IC50: 1 nM

## COc1ncc(C2=C(c3ccc(O[C@H]4CCN(CCCF)C4)cc3)c3ccc(O)cc3CCC2)cc1C [Example 101, 5-[4-[(3S)-1-(3-fluoropropyl)pyrrolidin-3-yl]oxyphenyl]-6-(6-methoxy-5-methyl-3-pyridyl)-8,9-dihydro-7H-benzo[7]annulen-2-ol]
  IC50: 0.8 nM

## COc1ncc(C2=C(c3ccc(O[C@H]4CCN(CCCF)C4)cc3)c3ccc(O)cc3CCC2)cc1F [Example 102, 6-(5-fluoro-6-methoxy-3-pyridyl)-5-[4-[(3S)-1-(3-fluoropropyl)pyrrolidin-3-yl]oxyphenyl]-8,9-dihydro-7H-benzo[7]annulen-2-ol]
  IC50: 0.1 nM

## CCOc1ccc(C2=C(c3ccc(O[C@H]4CCN(CCCF)C4)cc3)c3ccc(O)cc3CCC2)c(F)c1Cl [Example 103, 6-(3-chloro-4-ethoxy-2-fluoro-phenyl)-5-[4-[(3S)-1-(3-fluoropropyl)pyrrolidin-3-yl]oxyphenyl]-8,9-dihydro-7H-benzo[7]annulen-2-ol]
  IC50: 0.5 nM

## CCN1CCc2cc(C3=C(c4ccc(O[C@H]5CCN(CCCF)C5)cc4)c4ccc(O)cc4CCC3)ccc21 [Example 106, 6-(1-ethylindolin-5-yl)-5-[4-[(3S)-1-(3-fluoropropyl)pyrrolidin-3-yl]oxyphenyl]-8,9-dihydro-7H-benzo[7]annulen-2-ol]
  IC50: 1 nM

## CCOc1ncc(C2=C(c3ccc(O[C@H]4CCN(CCCF)C4)cc3)c3ccc(O)cc3CCC2)cn1 [Example 107, 6-(2-ethoxypyrimidin-5-yl)-5-[4-[(3S)-1-(3-fluoropropyl)pyrrolidin-3-yl]oxyphenyl]-8,9-dihydro-7H-benzo[7]annulen-2-ol]
  IC50: 0.5 nM

## COc1cc(C2=C(c3ccc(O[C@H]4CCN(CCCF)C4)cc3)c3ccc(O)cc3CCC2)ccn1 [Example 109, 5-[4-[(3S)-1-(3-fluoropropyl)pyrrolidin-3-yl]oxyphenyl]-6-(2-methoxy-4-pyridyl)-8,9-dihydro-7H-benzo[7]annulen-2-ol]
  IC50: 0.2 nM

## Cc1cc(C2=C(c3ccc(O[C@H]4CCN(CCCF)C4)cc3)c3ccc(O)c(F)c3CCC2)ccc1Cl [Example 113, 6-(4-chloro-3-methyl-phenyl)-1-fluoro-5-[4-[(3S)-1-(3-fluoropropyl)pyrrolidin-3-yl]oxyphenyl]-8,9-dihydro-7H-benzo[7]annulen-2-ol]
  IC50: 0.6 nM

## Oc1ccc2c(c1F)CCCC(c1ccc(F)cc1C(F)(F)F)=C2c1ccc(O[C@H]2CCN(CCCF)C2)cc1 [Example 115, 1-fluoro-5-[4-[(3S)-1-(3-fluoropropyl)pyrrolidin-3-yl]oxyphenyl]-6-[4-fluoro-2-(trifluoromethyl)phenyl]-8,9-dihydro-7H-benzo[7]annulen-2-ol]
  IC50: 0.3 nM

## Oc1ccc2c(c1)CCCC(c1ccc(OC(F)F)cc1F)=C2c1ccc(O[C@H]2CCN(CCCF)C2)cc1 [Example 116, 6-[4-(difluoromethoxy)-2-fluoro-phenyl]-5-[4-[(3S)-1-(3-fluoropropyl)pyrrolidin-3-yl]oxyphenyl]-8,9-dihydro-7H-benzo[7]annulen-2-ol]
  IC50: 0.1 nM

## Oc1ccc2c(c1)CCCC(c1ccc(OC(F)(F)F)cc1F)=C2c1ccc(O[C@H]2CCN(CCCF)C2)cc1 [Example 117, 5-[4-[(3S)-1-(3-fluoropropyl)pyrrolidin-3-yl]oxyphenyl]-6-[2-fluoro-4-(trifluoromethoxy)phenyl]-8,9-dihydro-7H-benzo[7]annulen-2-ol]
  IC50: 0.5 nM

## Oc1ccc2c(c1)CCCC(c1ccc(OCC(F)(F)F)cc1)=C2c1ccc(O[C@H]2CCN(CCCF)C2)cc1 [Example 119, 5-[4-[(3S)-1-(3-fluoropropyl)pyrrolidin-3-yl]oxyphenyl]-6-[4-(2,2,2-trifluoroethoxy)phenyl]-8,9-dihydro-7H-benzo[7]annulen-2-ol]
  IC50: 0.7 nM

## CCOc1c(F)cc(C2=C(c3ccc(O[C@H]4CCN(CCCF)C4)cc3)c3ccc(O)cc3CCC2)cc1F [Example 120, 6-(4-ethoxy-3,5-difluoro-phenyl)-5-[4-[(3S)-1-(3-fluoropropyl)pyrrolidin-3-yl]oxyphenyl]-8,9-dihydro-7H-benzo[7]annulen-2-ol]
  IC50: 0.3 nM

## Oc1ccc2c(c1F)CCCC(c1ccc(Cl)cc1F)=C2c1ccc(O[C@H]2CCN(CCCF)C2)cc1 [Example 121]
  IC50: 0.3 nM

## Oc1ccc2c(c1F)CCCC(c1ccc(C(F)(F)F)cc1)=C2c1ccc(O[C@H]2CCN(CCCF)C2)cc1 [Example 124, 1-fluoro-5-[4-[(3S)-1-(3-fluoropropyl)pyrrolidin-3-yl]oxyphenyl]-6-[4-(trifluoromethyl)phenyl]-8,9-dihydro-7H-benzo[7]annulen-2-ol]
  IC50: 0.3 nM

## Cn1ccc2cc(C3=C(c4ccc(O[C@H]5CCN(CCCF)C5)cc4)c4ccc(O)cc4CCC3)ccc21 [Example 126, 5-[4-[(3S)-1-(3-fluoropropyl)pyrrolidin-3-yl]oxyphenyl]-6-(1-methylindol-5-yl)-8,9-dihydro-7H-benzo[7]annulen-2-ol]
  IC50: 1 nM

## Oc1ccc2c(c1)CCCC(c1ccc(Cl)nc1)=C2c1ccc(O[C@H]2CCN(CCCF)C2)cc1 [Example 127, 6-(6-chloro-3-pyridyl)-5-[4-[(3S)-1-(3-fluoropropyl)pyrrolidin-3-yl]oxyphenyl]-8,9-dihydro-7H-benzo[7]annulen-2-ol]
  IC50: 0.1 nM

## Oc1ccc2c(c1)CCCC(c1ccc(C(F)(F)F)nc1F)=C2c1ccc(O[C@H]2CCN(CCCF)C2)cc1 [Example 129, 5-[4-[(3S)-1-(3-fluoropropyl)pyrrolidin-3-yl]oxyphenyl]-6-[2-fluoro-6-(trifluoromethyl)-3-pyridyl]-8,9-dihydro-7H-benzo[7]annulen-2-ol]
  IC50: 0.1 nM

## CCOc1ccc(C2=C(c3ccc(O[C@H]4CCN(CCCF)C4)cc3)c3ccc(O)cc3CCC2)c(C)c1C [Example 131, 6-(4-ethoxy-2,3-dimethyl-phenyl)-5-[4-[(3S)-1-(3-fluoropropyl)pyrrolidin-3-yl]oxyphenyl]-8,9-dihydro-7H-benzo[7]annulen-2-ol]
  IC50: 0.4 nM

## CCOc1ncc(C2=C(c3ccc(O[C@H]4CCN(CCCF)C4)cc3)c3ccc(O)cc3CCC2)cc1C(F)(F)F [Example 132, 6-[6-ethoxy-5-(trifluoromethyl)-3-pyridyl]-5-[4-[(3S)-1-(3-fluoropropyl)pyrrolidin-3-yl]oxyphenyl]-8,9-dihydro-7H-benzo[7]annulen-2-ol]
  IC50: 0.7 nM

## CN1CCOc2cc(C3=C(c4ccc(O[C@H]5CCN(CCCF)C5)cc4)c4ccc(O)cc4CCC3)ccc21 [Example 133, 5-[4-[(3S)-1-(3-fluoropropyl)pyrrolidin-3-yl]oxyphenyl]-6-(4-methyl-2,3-dihydro-1,4-benzoxazin-7-yl)-8,9-dihydro-7H-benzo[7]annulen-2-ol]
  IC50: 1 nM

## Oc1ccc2c(c1)CCCC(c1ccc3c(c1)OC(F)(F)O3)=C2c1ccc(O[C@H]2CCN(CCCF)C2)cc1 [Example 134, 6-(2,2-difluoro-1,3-benzodioxol-5-yl)-5-[4-[(3S)-1-(3-fluoropropyl)pyrrolidin-3-yl]oxyphenyl]-8,9-dihydro-7H-benzo[7]annulen-2-ol]
  IC50: 0.1 nM

## CCN1C(=O)COc2ccc(C3=C(c4ccc(O[C@H]5CCN(CCCF)C5)cc4)c4ccc(O)cc4CCC3)cc21 [Example 135]
  IC50: 1 nM

## CCOc1cc(C)c(C2=C(c3ccc(O[C@H]4CCN(CCCF)C4)cc3)c3ccc(O)cc3CCC2)cn1 [Example 139, 6-(6-ethoxy-4-methyl-3-pyridyl)-5-[4-[(3S)-1-(3-fluoropropyl)pyrrolidin-3-yl]oxyphenyl]-8,9-dihydro-7H-benzo[7]annulen-2-ol]
  IC50: 0.1 nM

## CCOc1c(F)cc(C2=C(c3ccc(O[C@H]4CCN(CCCF)C4)cc3)c3ccc(O)cc3CCC2)cc1Cl [Example 140, 6-(3-chloro-4-ethoxy-5-fluoro-phenyl)-5-[4-[(3S)-1-(3-fluoropropyl)pyrrolidin-3-yl]oxyphenyl]-8,9-dihydro-7H-benzo[7]annulen-2-ol]
  IC50: 1 nM

## Nc1ncc(C2=C(c3ccc(O[C@H]4CCN(CCCF)C4)cc3)c3ccc(O)cc3CCC2)cn1 [Example 141, 6-(2-aminopyrimidin-5-yl)-5-[4-[(3S)-1-(3-fluoropropyl)pyrrolidin-3-yl]oxyphenyl]-8,9-dihydro-7H-benzo[7]annulen-2-ol]
  IC50: 0.3 nM
